Measured values from the supplement of paper PMC7125110.
± gives the standard error. Variants at the floor of the assay are shown more often than the library holds them.

B1: glmS ribozyme (parent)
chain: AUAAAAGCGCCAGAACUACAGAAAUGUAGUUGACGAGGAGGAGGUUUAUCGAAUUUUCGGCGGAUGCCUCCAAA

Variants of: B1
Test: self-cleavage kobs at 160 uM GlcN6P; higher = faster cleavage; RNA array
Conditions: with glucosamine-6-phosphate
Summary of the method: (§1)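 On sequenced MiSeq chips, barcoded ribozyme variants were made in situ by E. coli RNA polymerase and followed at 37 °C through a hybridised Cy3 probe. Glucosamine-6-phosphate was flowed in at 40 μM to 10 mM in HEPES/KCl/Mg(OAc)2 buffer. Exponential fits to normalised per-tile medians gave kobs, and weighted Michaelis–Menten fits gave kcat and KM.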

self-cleavage kobs at 160 uM GlcN6P, 5.92e-05 ± 2.5e-05 s⁻¹:
C50G U54C

self-cleavage kobs at 160 uM GlcN6P, 3.29e-05 ± 1e-05 s⁻¹:
C68A C71G

self-cleavage kobs at 160 uM GlcN6P, 3.64e-05 ± 1.6e-05 s⁻¹:
G51U U55G C58G C61G

self-cleavage kobs at 160 uM GlcN6P, < 1e-05 s⁻¹:
A39G G51C
G40U C61A C70U
G43C U55A A64U
A53U G63A
A36C C50G G51A
G44A U47G C58A
G35A U45G U65A
G35C A42G U65G
G38A A64G
G44C U46C
G37C G41A G44U
G37A G38U
U47G G62C
A53U C61G G66U
G38U C50U A53U G59C
A39C G44A C70G
A48G G66U
G38A A53U A64U
G37A U47A G59U U69C
U54G G60A
C34A G44A G62U
U47C C61U G63C C70U
G35A A36U C68A A72C
G35A G37C G63A
G40A A64U C68A
A33U G38U C70U
G41U A48U
A39G C58U G60U
U46A G62C C67U
G35C U57G G59C
C50A A64C
C50A A64G
G35U A48G U57A C70G
G41U A52U U57C
C34G G37C A53G
G40C A48G
G38U U56C U65A
U55C C68U
C61U G62C G66A C71U
A42C A52C C67G
C34A G41A C71U
U45A C68G
A36U A48U C58U
G41C U54G C67U
G37C G62A U65G
U57G G59U A64U
G41U G44U C58U G59A G66U C67G
G38C G41A G51U
A48G A52C G59C
A39C U57G C61A U69C
A33G U47G A48C G51C
G38U A52G
A42C A52G
U46C A48U
A39U G41C A52G
A36G G38A A52U
U49G G62U
G35A C58G
G51U G62A G63C
A39G G51U G59U
A36G G38C A42U G62A C67U C68A U69G
G44A G51U
G51U U57A G66A
G38C G41C U45A
C58U G62U

self-cleavage kobs at 160 uM GlcN6P, 0.00155 ± 0.00063 s⁻¹:
C50G A53U

Variants of: B1
Test: self-cleavage kobs at 2500 uM GlcN6P; higher = faster cleavage; RNA array
Conditions: with glucosamine-6-phosphate
Summary of the method: as §1

self-cleavage kobs at 2500 uM GlcN6P, < 1e-05 s⁻¹:
A39G G51C
A6C A15U G43A C71U
A6C G44U C71A
A6G G13C G37A C68A
A6U G44A U56A
G40U C61A C70U
A6U A14U U31C A42G A52C A64C
A6U A15U U46G G59A
A6U U30G G35C G62U
A6U A14C G32C G41A
G7U G13A U30G
A6G U30A A36C G41A U56C
A6U G38A G40C U65G
A6C G13U C67U
A6C G9U C70A
G35A U45G U65A
G35C A42G U65G
A6C G7U U45A
A6C A39G C50G C61U
A6G G40A G41C
G7C C11A A15U C16U A36G
U47G G62C
G7U C16U U49G C67G
G7U A33U C34A A39G G51A A53U C71U
G38U C50U A53U G59C
G7U C16U A36U
A6C C8U A12G U47A
A6U A14C A48C G51A
A6G G59C G63U
A6U G35U A42C A48G
C34A G44A G62U
G35A G37C G63A
A6U A15U A36C
G40A A64U C68A
G7A A33C A53G A64U
A6U C34G A64C
A6C G35A G51U C68G
A6U G43C U54A
A39G C58U G60U
U46A G62C C67U
A6C G32C A39U C61G
G7U G9U U56A G59U
G7A G9U G44A
G7U C8G C16G G59A
A6C G9A U46A U57A
G7A G38U G41U
A6C C8G G44A
A6U A12C C34U A48G C61G A64U
G35U A48G U57A C70G
A6U G29C G63A
A6G C11G U45A C50A
G7C G29U C34A
A6U C8G G44C A53G
A6C U31A C34A
G7U A39C U69C
A6U C16A C58U
A1C C11A C16G A64U
G7A G9C A36C
G38U U56C U65A
G7C C16U C68A C70G
A6U G13A G35A G66C
A6C A39G G51C
A6G U54C C70A
A6C G29C A52U C70U
G7U C67G
A6G A42U U47C
G7U A14U C16G A33U
A6U U30C G40C
A6C A36U G37C A39U
G7C C8A G9A C10G A12G A33C U57G
A6U A15G C34G U54A
A6G A14G A36U
G41U G44U C58U G59A G66U C67G
A6U A14G A33C G35U G40A A48C G51U
G38C G41A G51U
A48G A52C G59C
A39C U57G C61A U69C
G38U A52G
A6U G35U G51U
G7A C8G G9C U31G G37C C67U C68G C70G
A6C A14U U46A
A42C A52G
A6C G32U G41U U54A
A6G A14C G44A G51U
A6U C8U C11A C16U G44U
G7U C11U A53U U55C
A39U G41C A52G
G7U C34A C70U
A6U C8G C10G
U49G G62U
A6U A42C U57G
G35A C58G
A6C G41U C50U C58U C67U
G51U U57A G66A
G7A A33G G44U G66U
G7A A14U U30C
G38C G41C U45A

self-cleavage kobs at 2500 uM GlcN6P, 3.63e-05 ± 9.6e-06 s⁻¹:
C68A C71G

self-cleavage kobs at 2500 uM GlcN6P, 0.000117 ± 2.9e-05 s⁻¹:
A6G A14U U54A

self-cleavage kobs at 2500 uM GlcN6P, 3.22e-05 ± 1.3e-05 s⁻¹:
A6U C71A

self-cleavage kobs at 2500 uM GlcN6P, 6.44e-05 ± 1.3e-05 s⁻¹:
U46C A48U

self-cleavage kobs at 2500 uM GlcN6P, 5.87e-05 ± 1.8e-05 s⁻¹:
C50G U54C

self-cleavage kobs at 2500 uM GlcN6P, 8.04e-05 ± 1.4e-05 s⁻¹:
A6G G38A C50G U57G C68U

self-cleavage kobs at 2500 uM GlcN6P, 2.28e-05 ± 1e-05 s⁻¹:
A6U C16G

Variants of: B1
Test: self-cleavage kobs at 10000 uM GlcN6P; higher = faster cleavage; RNA array
Conditions: with glucosamine-6-phosphate
Summary of the method: as §1

self-cleavage kobs at 10000 uM GlcN6P, < 1e-05 s⁻¹:
A39G G51C
A53U G63A
A6U U30G G35C G62U
A6C G9U C70A
U47G G62C
A48G G66U
A6C G9A U46A U57A
C50A A64C
G38U U56C U65A
A6C A14U U46A
A6U C8G C10G
G44A G51U
G51U U57A G66A
C58U G62U

self-cleavage kobs at 10000 uM GlcN6P, 4.63e-05 ± 1.1e-05 s⁻¹:
A6U C71A

self-cleavage kobs at 10000 uM GlcN6P, 6.9e-05 ± 9e-06 s⁻¹:
U46C A48U

self-cleavage kobs at 10000 uM GlcN6P, 3.87e-05 ± 6.9e-06 s⁻¹:
A6U C16G
